# Experimental data taken from the supplement of paper PMC3334620.
# The full ranking holds about 33,000 sequences; the median of “E-score (-0.5 to 0.5)” is about -0.013, and the highest 2% start at about 0.3. Some of the results follow.
# Target: T1, Msn1 (UniProt P22148)
# T1 sequence: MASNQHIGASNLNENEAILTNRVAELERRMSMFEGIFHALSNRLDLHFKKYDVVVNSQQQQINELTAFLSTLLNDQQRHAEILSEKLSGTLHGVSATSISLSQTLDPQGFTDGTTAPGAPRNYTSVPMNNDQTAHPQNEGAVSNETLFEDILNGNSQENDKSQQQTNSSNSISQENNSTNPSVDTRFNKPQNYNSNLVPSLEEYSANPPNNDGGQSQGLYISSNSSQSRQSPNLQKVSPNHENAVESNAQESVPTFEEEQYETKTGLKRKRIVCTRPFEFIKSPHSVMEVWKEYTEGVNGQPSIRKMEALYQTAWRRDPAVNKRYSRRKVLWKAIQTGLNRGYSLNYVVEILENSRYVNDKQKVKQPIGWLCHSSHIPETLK
# Assay: PBM E-score (8-mer binding enrichment) (E-score (-0.5 to 0.5)); higher = stronger / more preferred TF binding; most listed sequences are background and not binding sites
# Conditions: protein concentration: 200 nM; construct: GST-full length
# Protocol: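 Universal 'all 10-mer' protein binding microarrays (Agilent AMADID 015681) probed with GST-tagged S. cerevisiae TFs (full-length or DBD) made by in vitro transcription/translation (PURExpress), about 100-200 nM. Bound TF was detected with fluorescent anti-GST. Each ungapped 8-mer (which stands for itself and its reverse complement) is scored by the PBM enrichment score (E-score), a modified Wilcoxon-Mann-Whitney statistic from -0.5 to +0.5, computed with the Universal PBM Analysis Suite. Scale: above 0.35 generally sequence-specific binding.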
row,Sequence,PBM E-score
1,AAGAGCTA,-0.123
2,AGACCAAC,-0.123
3,CAAGGATG,0.0518
4,GGCTCAAA,0.0121
5,CCAACCTC,-0.183
6,ACTCGCCC,-0.215
7,AAAAATAT,0.208
8,GCGATCAC,-0.129
9,AACACCAC,-0.00468
10,GCTGAAAA,0.0171
11,CGGATCCA,0.0747
12,AGTAGTCA,-0.0439
13,GAAGGCTA,-0.174
14,CTATGAAC,0.0959
15,CTCTTTTC,-0.0127
16,CTGAGAAA,0.133
17,CTCCCGGA,-0.105
18,AAGATGCG,0.0848
19,AACACGAA,0.0949
20,GACGTGTA,0.0955
21,AGAGGACT,-0.21
22,AGGTTTAC,-0.0715

row,Sequence,PBM E-score
1,CTCCCCTC,-0.138
2,CACGACAA,0.256
3,AAGTACAA,0.306
4,ATCCGATA,0.128
5,GGGTATCA,0.0836
6,ATGCGCGA,-0.0619
7,TCGATCCA,0.00147
8,ACTGGAGA,-0.0757
9,ATCACAAG,-0.0096
10,ATGCTTGA,-0.0597
11,ATCAGCAA,-0.0713
12,AAAGACCC,-0.137
13,GCTATACC,-0.164
14,AGCACCTG,-0.0542
15,CGCTCACC,0.00051
16,AATGCCAA,0.0776
17,ACCTGCCC,-0.0652
18,AACGGTCC,0.0385
19,AAACAAGC,0.0674
20,ACACTCAA,0.14
21,AAGCTACC,-0.0471
22,TACTCGCA,0.0491

row,Sequence,PBM E-score
1,GTTACGGA,0.0434
2,AACTCTTA,0.0384
3,GGCCCGAC,-0.126
4,GACATCGA,0.208
5,ATGTATTA,0.169
6,CGCACCGC,-0.142
7,ATCGAGGA,-0.00377
8,CGCACGCC,0.0526
9,ATTTGTTC,0.297
10,ACTCTCTG,-0.15
11,GGTCGTAA,-0.0297
12,CCGGGACA,0.457
13,GCTGTACC,-0.0566
14,AAGGTGCG,-0.0808
15,AGGATTAG,0.0805
16,AAAGCAGT,0.0385
17,GAGACAAC,0.203
18,CTTATCTC,0.0207
19,AACGAGGG,-0.175
20,CAGACCTG,-0.159
21,AGGTTAAT,0.0557
22,ACTCAGAA,0.0481

row,Sequence,PBM E-score
1,AGGCATAC,-0.179
2,ACATTCAA,0.134
3,AATAACCT,-0.011
4,GAGTGTCC,0.232
5,GAGGTGAC,0.181
6,CCATCATA,-0.161
7,AGCTTACC,-0.106
8,AATGGCCC,-0.275
9,CGGAATGC,-0.0379
10,ACGTCACG,0.00154
11,GTAGATCA,0.00307
12,GAGATAAC,0.103
13,CGAGTAGC,0.0335
14,GTAAGTAA,0.0687
15,ATACAGAC,0.203
16,ATAGAGAC,0.215
17,CGGCGACC,-0.182
18,AGCTTCAC,-0.181
19,CTTATTCC,-0.0482
20,TACCTGGA,0.0334
21,TGAAGTAA,0.0331
22,AAAAGATC,-0.00188

row,Sequence,PBM E-score
1,AGCGCCAC,-0.254
2,ATCAGGAG,-0.0236
3,GAGCTCCC,-0.209
4,ACTTAACC,0.0614
5,GTAATCTA,0.3
6,CACCATGG,-0.25
7,ACGCGCTC,0.0922
8,ATCTACAA,-0.0675
9,AAGGGGAC,0.101
10,ACATGCGC,0.296
11,AATAAATT,0.219
12,TGCTATAA,0.0592
13,AAGTGGAC,0.209
14,ATAGTGAG,-0.0677
15,CACATGCA,-0.0632
16,AGCCTAAA,0.0544
17,ATCAGGTA,0.082
18,CCCTGTCG,-0.16
19,AAGTGGGT,-0.157
20,AAGAGTAG,-0.0872
21,ACATTCGC,0.216
22,AAGCGCGT,0.0286
